In test [1] the target is T1, NKG2D (human, UniProt P26718 1-216).
T1 construct: whole, on cells; also called NKGD
T1 sequence (looked up): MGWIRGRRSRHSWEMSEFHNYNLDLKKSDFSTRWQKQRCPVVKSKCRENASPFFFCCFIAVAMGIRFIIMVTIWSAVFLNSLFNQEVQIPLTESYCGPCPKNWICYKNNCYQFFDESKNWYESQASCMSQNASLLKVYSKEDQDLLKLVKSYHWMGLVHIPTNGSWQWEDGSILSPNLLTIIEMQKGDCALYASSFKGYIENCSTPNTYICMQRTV
The test is described as follows: flow cytometry (FACSCanto), cells carrying the target (line not given), 2 ug/mL. For orientation: Flow cytometry measures light scatter and fluorescence of single cells or particles in a stream.

The target in test [2] is T1, NKG2D. Description: flow cytometry (FACSCalibur), activated NK cells, 10 ug/ml, R-PE GMFI on CD56+ live cells.

The results in this text go back to patent US20110044980A1 (AbbVie / Abbott, published 2011).

B1: DVD1060 (bispecific antibody)
VH: QVQLVESGGGLVKPGGSLRLSCAASGFTFSSYGMHWVRQAPGKGLEWVAFIRYDGSNKYYADSVKGRFTISRDNSKNTLYLQMNSLRAEDTAVYYCAKDRGLGDGTYFDYWGQGTTVTVSSASTKGPSVFPLAP[letters of about 120 residues not shown]
VL: QSALTQPASVSGSPGQSITISCSGSSSNIGNNAVNWYQQLPGKAPKLLIYYDDLLPSGVSDRFSGSKSGTSAFLAISGLQSEDEADYYCAAWDDSLNGPVFGGGTKLTVLGQPKAAPSVTLFPP[letters of about 100 residues not shown]
notes: also called DVD1060H + DVD1060L
Take B1: the “FACS Geometric Mean N-terminal” value with NKG2D [1] was found to be 299; in the test with NKG2D [2], 28.9.

B2: DVD1061 (bispecific antibody)
VH: [letters of about 120 residues not shown]ASTKGPSVFPLAPQVQLVESGGGLVKPGGSLRLSCAASGFTFSSYGMHWVRQAPGKGLEWVAFIRYDGSNKYYADSVKGRFTISRDNSKNTLYLQMNSLRAEDTAVYYCAKDRGLGDGTYFDYWGQGTTVTVSS
VL: [letters of about 100 residues not shown]RTVAAPSVFIFPPQSALTQPASVSGSPGQSITISCSGSSSNIGNNAVNWYQQLPGKAPKLLIYYDDLLPSGVSDRFSGSKSGTSAFLAISGLQSEDEADYYCAAWDDSLNGPVFGGGTKLTVLG
notes: also called DVD1061H + DVD1061L
For the molecule B2, the figures for the “FACS Geometric Mean C-terminal” value in the test with NKG2D [1] and in the test with NKG2D [2] were 220 and 29.2, respectively.
